By IC50 is meant the dose at which the fit gives 50% viability; a limit (>, <) means that the fit lies beyond the doses tested. For AUC the same curve is integrated over the 256-fold range of doses and scaled to a fraction; the more sensitive the line, the further below 1. For some assays here: The top dose, if marked as inferred, was calculated from the reported fits.
Assays:
Experiment in all cases: Viability of human cancer cell lines after 72 h of drug (GDSC screen)
17-AAG = compound: C=CCNC1=C2C[C@@H](C)C[C@H](OC)[C@H](O)[C@@H](C)/C=C(\C)[C@H](OC(N)=O)[C@@H](OC)/C=C\C=C(/C)C(=O)NC(=CC1=O)C2=O [17-AAG]; conditions: top dose 1 µM
Method: (§1)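 Human cancer cell lines in 384-well plates, medium with 10% serum, drug for 72 h over a 256-fold dose range (nine 2-fold or five 4-fold steps up to the top dose). Adherent lines were fixed and stained with the nucleic acid dye Syto60, suspension lines read with resazurin; signal relative to control wells, capped at 0 and 100%. One two-parameter sigmoid per drug and line, fitted in a mixed model over all curves with the slope shared within a line.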

CCT018159 = compound: CCc1cc(-c2n[nH]c(C)c2-c2ccc3c(c2)OCCO3)c(O)cc1O [CCT018159]; conditions: top dose 10 µM; top dose inferred
Method: as §1

BIX02189 = compound: CN(C)Cc1cccc(N=C(c2ccccc2)c2c(O)[nH]c3cc(C(=O)N(C)C)ccc23)c1 [BIX02189]; conditions: top dose 20 µM; top dose inferred
Method: as §1

Dimethyloxalylglycine = compound: COC(=O)CNC(=O)C(=O)OC [Dimethyloxalylglycine]; conditions: top dose 4000 µM; top dose inferred
Method: as §1

Doxorubicin = compound: COc1cccc2c1C(=O)c1c(O)c3c(c(O)c1C2=O)C[C@@](O)(C(=O)CO)C[C@@H]3O[C@H]1C[C@H](N)[C@H](O)[C@H](C)O1 [Doxorubicin]; conditions: top dose 1.024 µM
Method: as §1

OSI-027 = compound: COc1cccc2cc(-c3nc([C@H]4CC[C@H](C(=O)O)CC4)n4ncnc(N)c34)[nH]c12 [OSI-027]; conditions: top dose 20 µM
Method: as §1

Vismodegib = compound: CS(=O)(=O)c1ccc(C(=O)Nc2ccc(Cl)c(-c3ccccn3)c2)c(Cl)c1 [Vismodegib]; conditions: top dose 10 µM; top dose inferred
Method: as §1

VX-11e = compound: Cc1cnc(Nc2ccc(F)cc2Cl)nc1-c1c[nH]c(C(=O)N[C@H](CO)c2cccc(Cl)c2)c1 [VX-11e]; conditions: top dose 5.12 µM; top dose inferred
Method: as §1

TG101348 = compound: Cc1cnc(Nc2ccc(OCCN3CCCC3)cc2)nc1Nc1cccc(S(=O)(=O)NC(C)(C)C)c1 [TG101348]; conditions: top dose 10.24 µM
Method: as §1

UNC1215 = compound: O=C(c1ccc(C(=O)N2CCC(N3CCCC3)CC2)c(Nc2ccccc2)c1)N1CCC(N2CCCC2)CC1 [UNC1215]; conditions: top dose 1 µM; top dose inferred
Method: as §1

Row | Cell Line | AUC (17-AAG) | IC50 (17-AAG) [µM] | AUC (CCT018159) | IC50 (CCT018159) [µM] | AUC (BIX02189) | IC50 (BIX02189) [µM] | AUC (Dimethyloxalylglycine) | IC50 (Dimethyloxalylglycine) [µM] | AUC (Doxorubicin) | IC50 (Doxorubicin) [µM] | AUC (OSI-027) | IC50 (OSI-027) [µM] | AUC (Vismodegib) | IC50 (Vismodegib) [µM] | AUC (VX-11e) | IC50 (VX-11e) [µM] | AUC (TG101348) | IC50 (TG101348) [µM] | AUC (UNC1215) | IC50 (UNC1215) [µM]
1 | MG-63 (osteosarcoma, adherent) | 0.912 | > 1 | 0.878 | > 10 | 0.981 | > 20 | 0.406 | 132 | 0.393 | 0.031 | 0.983 | > 20 | 0.94 | > 10 | 0.982 | > 5.12 | 0.984 | > 10.2 |  | 
2 | MKN28 (stomach, adherent) | 0.835 | 0.675 | 0.953 | > 10 | 0.933 | > 20 | 0.713 | 1020 | 0.384 | 0.0305 | 0.94 | > 20 | 0.972 | > 10 | 0.912 | > 5.12 | 0.88 | > 10.2 |  | 
3 | MOLM-13 (acute myeloid leukaemia, suspension) | 0.871 | 0.844 | 0.804 | 4.64 | 0.404 | 0.693 | 0.342 | 93.7 | 0.471 | 0.0538 | 0.178 | 0.146 | 0.976 | > 10 | 0.735 | 1.42 |  |  | 0.974 | > 1
4 | MSTO-211H (mesothelioma, adherent) | 0.809 | 0.461 | 0.991 | > 10 | 0.991 | > 20 | 0.932 | > 4000 | 0.991 | > 1.02 | 0.856 | 13.8 | 0.991 | > 10 | 0.991 | > 5.12 | 0.958 | > 10.2 |  | 
5 | MY-M12 (leukaemia, suspension) | 0.915 | > 1 | 0.909 | > 10 | 0.869 | > 20 | 0.148 | 16.7 | 0.407 | 0.0345 | 0.112 | < 0.0781 | 0.974 | > 10 | 0.78 | 2.4 | 0.628 | 1.51 |  | 
6 | NCI-H64 (small cell lung carcinoma, suspension) | 0.996 | > 1 | 0.992 | > 10 | 0.984 | > 20 | 0.499 | 249 | 0.629 |  | 0.122 | 0.134 | 0.996 | > 10 | 0.994 | > 5.12 | 0.843 | 4.67 |  | 
7 | NCI-H510A (small cell lung carcinoma, semi-adherent) | 0.854 | 0.692 | 0.936 | > 10 | 0.949 | > 20 | 0.495 | 242 | 0.721 | 0.254 | 0.624 | 2.65 | 0.958 | > 10 | 0.96 | > 5.12 | 0.876 | 8.69 |  | 
8 | NCI-H2052 (mesothelioma, adherent) | 0.846 | > 1 | 0.96 | > 10 | 0.969 | > 20 | 0.658 | 779 | 0.635 | 0.168 | 0.939 | > 20 | 0.983 | > 10 | 0.969 | > 5.12 | 0.855 | > 10.2 |  | 
9 | PA-1 (ovary, adherent) | 0.917 | 0.928 | 0.81 | 3.92 | 0.898 | 15.4 | 0.37 |  | 0.212 |  | 0.068 | < 0.0781 | 0.992 | > 10 | 0.99 | > 5.12 | 0.573 | 0.968 |  | 
10 | PANC-04-03 (pancreas, adherent) | 0.639 | 0.191 | 0.858 | > 10 | 0.947 | > 20 | 0.69 | 1190 | 0.792 | 0.83 | 0.846 | > 20 | 0.976 | > 10 | 0.912 | > 5.12 | 0.918 | > 10.2 |  | 
11 | RPMI-7951 (melanoma, adherent) | 0.223 | 0.01 | 0.858 | 7.8 | 0.966 | > 20 | 0.541 |  | 0.617 | 0.133 | 0.372 | 0.561 | 0.964 | > 10 | 0.877 | 4.88 | 0.889 | > 10.2 |  | 
12 | SNU-449 (liver, adherent) | 0.979 | > 1 |  |  | 0.941 | > 20 | 0.338 | 84.9 | 0.821 | 0.664 | 0.278 | 0.275 | 0.986 | > 10 | 0.963 | > 5.12 | 0.875 | > 10.2 | 0.972 | > 1
13 | SUP-B15 (lymphoblastic leukaemia, suspension) | 0.982 | > 1 | 0.968 | > 10 | 0.858 | 15.4 | 0.178 | 28.3 | 0.182 | 0.00748 | 0.067 | < 0.0781 | 0.937 | > 10 | 0.869 | 4.38 | 0.586 | 1.09 |  | 
14 | SW13 (adrenal gland, adherent) | 0.942 | > 1 |  |  | 0.988 | > 20 | 0.617 | 526 | 0.62 | 0.138 | 0.923 | > 20 | 0.97 | > 10 | 0.988 | > 5.12 | 0.986 | > 10.2 | 0.986 | > 1
15 | SiHa (cervix, adherent) | 0.546 | 0.085 |  |  | 0.987 | > 20 | 0.646 | 675 | 0.969 | > 1.02 | 0.935 | > 20 | 0.987 | > 10 | 0.986 | > 5.12 | 0.987 | > 10.2 | 0.985 | > 1
